Where “and” joins values, the source holds several entries; their conditions need not be identical. Equal entries are not always repeated. The whole screen tested about 350,000 compounds, of which about 9,900 (2.8%) were called active. Inconclusive results, whose numbers are uncertain, are shown with a selection of clear calls. Calls come from the whole dose curve; as a rule, active = well fitted activation curve with a large enough effect; inconclusive = small, poorly fitted or top-dose-only effect; inactive = no such curve, though single readings can be large or run the other way. Where the call is inconclusive, the potency comes from a doubtful curve fit.
Assay: A quantitative high throughput screen for small molecules that induce DNA re-replication in MCF 10a normal breast cells. For activity, positive = re-replication: % of control where 0% means no effect. Note: nearly all actives have a fitted effect of over 50% in size.
Details: MCF 10A DNA re-replication, Hoechst nuclear intensity, 48 h; activity, positive = re-replication: at 46.1 µM (top of the series)
For `Cc1[nH]c2ccccc2c1C(=O)CN1C(=O)NC(C)(c2ccc(Cl)cc2Cl)C1=O` (centres undefined), the Potency was inconclusive: 16.4 µM [activator, single point]. In the case of `O=C1CC(c2cc([N+](=O)[O-])ccc2Cl)c2c(ccc3ccccc23)N1` (centres undefined), the Potency is reported as inconclusive: 29.1 µM [activator, single point]. With `O=C1CSCc2nc3ccccc3n21` the “activity, positive = re-replication” value was inactive: 1.73%. In the case of `Fc1cccc(F)c1-n1c(CN2CCCCC2)csc1=S`, the Potency is reported as inconclusive: 29.1 µM [activator, single point]. With `CCc1ccccc1Nc1nc(N)nc(CSCC(=O)c2cc(C)n(C)c2C)n1` the Potency was inconclusive: 32.6 µM [activator, partial curve, poor fit]. In the case of `O=[N+]([O-])c1ccc(Nc2ccc(Cl)cc2)nc1`, the Potency is reported as inconclusive: 23.1 µM [activator, single point]. For `COc1ccccc1C(=O)N1c2ccccc2Sc2ccccc21`, the Potency was active: 23.1 µM. In the case of `COc1ccc(OC)c(CN2CCN(C(=O)CNC(=O)c3ccc(C(C)(C)C)cc3)CC2)c1`, the Potency is reported as inconclusive: 29.1 µM [activator, single point]. With `O=C1Nc2cc(C(=O)NCCCN3CCOCC3)ccc2S/C1=C/c1ccccc1F` the Potency was inconclusive: 18.4 µM [activator, single point]. For `CC1(C)CC(=O)C=C(c2ccc(F)nc2)C1`, the Potency was inconclusive: 29.1 µM [activator, single point]. With `CC(C)c1cccc(C(C)C)c1NC(=O)COC(=O)c1ccc2c(c1)S(=O)(=O)c1ccccc1C2=O` the Potency was inconclusive: 3.66 µM [activator, partial curve, poor fit]. With `CCOC(=O)C(CCCOc1ccc(C(C)CC)cc1)C(=O)OCC` (centres undefined) the Potency was inconclusive: 25.9 µM [activator, single point]. With `COc1cc(OC)cc(C(=O)O/N=C(\N)c2ccccn2)c1` the “activity, positive = re-replication” value was inactive: -1.47%. In the case of `CC[C@@H]1Cc2cc(O)ccc2C2=C1c1ccc(O)cc1C[C@H]2CC`, the Potency is reported as inconclusive: 20.6 µM [activator, single point]. For `O=S(=O)(c1ccc2nc(N3CCN(c4ccccc4F)CC3)ccc2c1)N1CCCCC1`, the “activity, positive = re-replication” value was inactive: 9.89%. In the case of `COc1ccc(NS(=O)(=O)c2cccc(C(=O)N/N=C/c3ccccn3)c2)cc1`, the “activity, positive = re-replication” value is reported as inactive: 9.8%. For `Cc1ccc(C(=O)C2COC(=O)C2)cc1` (centres undefined), the Potency was inconclusive: 16.4 µM [activator, single point]. For `CC(C)CC(c1nnnn1CC1CCCO1)N1CCN(C2CCCC2)CC1` (centres undefined), the “activity, positive = re-replication” value was inactive: 0.969%. For `C=CCn1c(C)cc(C(=O)CN2NS(=O)(=O)c3ccccc3C2=O)c1C`, the Potency was inconclusive: 20.6 µM [activator, single point]. For `FC(F)(F)c1ccccc1/C=N/n1c(C2CCCCC2)n[nH]c1=S`, the Potency was inconclusive: 32.6 µM [activator, partial curve, poor fit]. In the case of `Cc1cccc(N(C(=O)c2snc(C(N)=O)c2N)C(C(=O)NCC2CCCO2)c2c[nH]c3ccccc23)c1` (centres undefined), the “activity, positive = re-replication” value is reported as inactive: 23.6%. With `COc1ccccc1C(=O)N1CCN(c2cccc(C(F)(F)F)c2)CC1` the Potency was active: 11.2 µM. For `O=C(C[n+]1cc(Br)cc2ccccc21)c1ccc(Cl)cc1`, the Potency was inconclusive: 18.4 µM [activator, single point]. With `CC1=CC(C)(C)N=C(Nc2ccc(C)cc2)S1` the Potency was inconclusive: 25.9 µM [activator, single point]. With `CCOC(=O)c1ccccc1NC1c2ccccc2C(=O)N1c1cc(C)ccn1` (centres undefined) the Potency was inconclusive: 14.6 µM [activator, partial curve, poor fit]. For `CC(C)CN(C(=O)COC(=O)c1cc2ccccc2cc1O)c1c(N)n(Cc2ccccc2)c(=O)[nH]c1=O`, the Potency was inconclusive: 17.8 µM [activator, single point]. In the case of `CC(C)(C)N1C(=O)c2ccc(C(=O)Nc3ccc(O)cc3)cc2C1=O`, the Potency is reported as inconclusive: 25.9 µM [activator, partial curve, poor fit]. With `Nc1ncnc2c1ncn2[C@H]1CC[C@@H](CO)O1` the Potency was “inactive and inconclusive: 58 nM [activator, full curve, poor fit]”. With `CC(CCc1ccccc1)NC(=O)CCNS(=O)(=O)c1ccccc1` (centres undefined) the “activity, positive = re-replication” value was inactive: 0.886%. In the case of `C=CCOC(=O)c1sc(NC(=O)c2ccco2)nc1C`, the Potency is reported as inconclusive: 16.4 µM [activator, single point]. With `Cc1cc(-c2ccc(C)c(S(=O)(=O)NCC3CCN(Cc4ccccc4F)CC3)c2)on1` the Potency was inconclusive: 29.1 µM [activator, single point]. For `COC(=O)c1cn(NC(=O)/C=C/c2ccc(OC)c(OC)c2)c(=O)c2ccccc12`, the Potency was inconclusive: 18.4 µM [activator, single point]. For `COc1ccc(-c2oc3ncnc(N)c3c2-c2ccccc2)cc1`, the Potency was inconclusive: 7.31 µM [activator, partial curve, poor fit]. For `Cc1ccccc1N1CCN(C2CCCN(C(=O)c3ccnn3C)C2)CC1` (centres undefined), the “activity, positive = re-replication” value was inactive: 6.12%. With `O=C1CC(C(=O)O)C(c2ccccc2)c2ccccc21` (centres undefined) the “activity, positive = re-replication” value was inactive: -0.346%. In the case of `COc1ccc(-c2cc(-c3ccccc3)c(C#N)c(S(C)=O)n2)cc1` (centres undefined), the Potency is reported as active: 5.17 µM. In the case of `COc1cccc(-c2cc(C(=O)Nc3cc(C)n(Cc4ccc(Cl)cc4)n3)no2)c1`, the Potency is reported as inconclusive: 23.1 µM [activator, single point]. For `COc1ccccc1NC(=O)Cn1nc(-c2ccc(Cl)cc2)c2ccccc2c1=O`, the Potency was inconclusive: 29.1 µM [activator, partial curve, poor fit]. In the case of `Cc1ccc(C)c(N2CCN(S(=O)(=O)c3c(C)noc3/C=C/N(C)C)CC2)c1`, the Potency is reported as active: 20.6 µM. With `COC(=O)c1ccc(OC(C)C(=O)c2ccc(C)cc2)cc1` (centres undefined) the “activity, positive = re-replication” value was inactive: 5.44%. With `COc1ccc(S(=O)(=O)NCCc2nnc3ccc(SCC(=O)Nc4nc(C)cs4)nn23)cc1` the “activity, positive = re-replication” value was inactive: 4.49%. For `Cc1ccc(NC(=O)CSc2nc3ccccc3c(=O)n2CCCN2CCCCC2)cc1Cl`, the Potency was active: 23.1 µM. With `O=C(COC(=O)c1ccccc1NCc1ccco1)Nc1ccc2c(c1)OCO2` the Potency was inconclusive: 29.1 µM [activator, single point]. In the case of `CCN1CCCC1CN(Cc1cc2c(C)cc(C)cc2[nH]c1=O)C(=O)NC1CCCCC1` (centres undefined), the “activity, positive = re-replication” value is reported as inactive: 16.3%.

Source: PubChem BioAssay AID624296 (National Center for Advancing Translational Sciences (NCATS), 2012)
Potency is the fitted concentration of half-maximal effect; tags give direction and shape of the fitted curve.
